Out of some 310,000 compounds screened, about 14,000 (4.5%) showed an effect of 50% or more. Effects have a minus sign here. Some of the results follow.
target: human ether-à-go-go-related gene (hERG) potassium channel (human, UniProt Q12809); assay: primary screen, population patch clamp on CHO cells stably expressing hERG
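Also: peak tail current of the secondary pulse compared with the same well before compound.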

Chain of human ether-à-go-go-related gene (hERG) potassium channel (Q12809 whole entry, looked up): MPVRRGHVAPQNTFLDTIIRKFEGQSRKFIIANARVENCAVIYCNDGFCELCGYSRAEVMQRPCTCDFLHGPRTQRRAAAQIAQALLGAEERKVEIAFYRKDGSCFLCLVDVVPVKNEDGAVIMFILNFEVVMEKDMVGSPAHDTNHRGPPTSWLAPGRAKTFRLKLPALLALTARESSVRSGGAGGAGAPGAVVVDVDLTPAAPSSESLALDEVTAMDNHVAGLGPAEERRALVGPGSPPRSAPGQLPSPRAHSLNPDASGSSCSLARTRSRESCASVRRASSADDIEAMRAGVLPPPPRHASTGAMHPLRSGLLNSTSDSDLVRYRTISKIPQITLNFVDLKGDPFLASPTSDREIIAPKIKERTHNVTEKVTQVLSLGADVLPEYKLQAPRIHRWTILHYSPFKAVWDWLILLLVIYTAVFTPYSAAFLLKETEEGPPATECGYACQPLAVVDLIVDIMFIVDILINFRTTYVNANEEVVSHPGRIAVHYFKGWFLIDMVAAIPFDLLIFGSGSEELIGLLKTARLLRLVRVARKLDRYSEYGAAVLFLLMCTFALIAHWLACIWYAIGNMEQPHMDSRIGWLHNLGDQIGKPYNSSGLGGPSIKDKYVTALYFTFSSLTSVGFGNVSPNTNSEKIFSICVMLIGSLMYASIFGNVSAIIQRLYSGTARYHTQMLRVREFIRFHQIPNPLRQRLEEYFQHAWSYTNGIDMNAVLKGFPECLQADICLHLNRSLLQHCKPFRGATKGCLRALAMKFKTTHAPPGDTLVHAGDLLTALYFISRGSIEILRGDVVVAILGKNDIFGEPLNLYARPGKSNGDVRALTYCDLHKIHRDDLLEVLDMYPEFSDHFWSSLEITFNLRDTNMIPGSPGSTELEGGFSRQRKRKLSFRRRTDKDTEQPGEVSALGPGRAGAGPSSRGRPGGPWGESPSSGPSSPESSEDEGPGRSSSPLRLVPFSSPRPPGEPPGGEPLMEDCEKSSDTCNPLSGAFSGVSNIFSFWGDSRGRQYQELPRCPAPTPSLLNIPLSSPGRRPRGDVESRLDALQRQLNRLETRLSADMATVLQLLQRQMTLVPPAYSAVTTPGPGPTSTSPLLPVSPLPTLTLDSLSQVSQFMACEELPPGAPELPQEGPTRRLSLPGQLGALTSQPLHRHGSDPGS

Structure (SMILES) | hERG current change (%, negative = inhibition) at 10uM
CC(=O)Nc1cccc(Oc2nc(C(F)(F)F)nc3ccccc23)c1 | -6.7%
COC(=O)C1=C(C)NC(C)=C(C(=O)OC)C1c1ccccc1OCc1c(C)no[n+]1[O-] | -22%
CC1CC(C)(C)NC(=S)N1CCCC(=O)Nc1ccc(F)cc1 (stereo not shown) | 18.3%
COc1cccc(-n2c(/C=C/c3ccccn3)nc3ccccc3c2=O)c1 | 7.03%
Cc1ccc(NS(=O)(=O)c2ccc(C(=O)N3CC(C)OC(C)C3)cc2)cc1 (stereo not shown) | 14.2%
Cc1ccc(-n2ncc(C(=O)NCc3ccc4c(c3)OCO4)c2NC(=O)c2ccco2)cc1C | -22.4%
CC(C)NC(=S)N/N=C/c1c[nH]c2ccccc12 | 2.04%
CCOC(=O)C1CCN(C(=O)CCNC(=O)c2cc(OC)c(OC)c(OC)c2)CC1 | 10.9%
Oc1ccc(/C(Cc2ccc3ccccc3n2)=N\Nc2ccccc2)c(O)c1 | 42%
O=C(Nc1ccc2nc3n(c(=O)c2c1)CCCCC3)c1ccccn1 | -21.2%
Cc1cccc(NC(=O)Nc2ccc(OCc3ccccc3)cc2)n1 | 21.3%
COc1ccc(S(=O)(=O)N2CCCC(C(=O)NCC3CCCO3)C2)cc1Cl (stereo not shown) | 0.933%
Nc1nonc1-n1nnc(C(=O)N/N=C/c2ccc(F)cc2)c1-c1ccc2c(c1)OCO2 | 6.64%
Cc1ccc(NCc2nnc(SCC(=O)c3ccccc3)n2Cc2ccco2)c(C)c1 | -7.53%
Cc1c(Nc2nc(C(F)(F)F)nc3ccccc23)c(=O)n(-c2ccccc2)n1C | -1.37%
Cc1ccc2nc(Cl)c(/C=N/Nc3ccc(C(=O)O)cc3)cc2c1 | 8.21%
O=C(CSc1nc2c(c(=O)[nH]1)CN(Cc1ccc(F)cc1)CC2)Nc1ccc(F)cc1 | -22.6%
COc1ccc(C(=O)Nn2c(C)nc3ccccc3c2=O)cc1OC | 21.7%
CCC(C)NC(=O)c1ccc(CN2CCc3ccccc3C2)cc1 (stereo not shown) | 0.0718%
Cc1nn(Cc2ccc(C(=O)O)o2)c(C)c1[N+](=O)[O-] | 25.5%
O=C(NCC1CCCO1)/C(=C/c1ccccc1F)NC(=O)c1ccccc1 (stereo not shown) | -6.18%
CCOC(=O)CNC(=O)CSc1nnc(-c2ccc(OC)cc2)n1CC | 10.5%

Structure (SMILES) | hERG current change (%, negative = inhibition) at 10uM
Cn1nnnc1SCC(=O)N1CCN(c2ccccc2)CC1 | 12.4%
O=C(Nc1ccccc1C(F)(F)F)c1ccc2nccnc2c1 | 12.9%
Cc1cccc(NC(=O)COC(=O)CNC(=O)C2CCCCC2)c1 | -3.71%
c1coc(CNc2ncnc3c2oc2ccccc23)c1 | -22.1%
Cc1cc(C)nc(NS(=O)(=O)c2ccc(N=Cc3c(C)[nH]n(-c4ccccc4)c3=O)cc2)n1 | 19%
S=C(NCCc1ccccc1)N1CCN(C23CC4CC(CC(C4)C2)C3)CC1 | -75.2%
S=C(Nc1cccc(Cl)c1)N(CCCN1CCCC1)Cc1cccn1Cc1ccc(Cl)cc1 | -22.7%
Cc1ccc(-n2c(CCc3ccccc3)nnc2SCC(=O)NCc2ccccc2)cc1C | 5.97%
COc1cc(OC)cc(C(=O)NC(C(=O)O)C23CC4CC(CC(C4)C2)C3)c1 (stereo not shown) | 14.3%
C/C(=N\N1CCN(Cc2ccccc2)CC1)c1ccco1 | -1.45%
Cc1ccc(NC(=O)CCCOc2ccccc2)cc1S(=O)(=O)N1CCOCC1 | -23.8%
COCCNC(=O)C1CCC(CNS(=O)(=O)c2ccc(F)cc2)CC1 (stereo not shown) | 17.3%
COc1ccccc1NC(=S)N1CCC(C(=O)c2ccc(F)cc2)CC1 | -22.7%
O=C(C1CCCCC1)N1CCCC(c2nc(-c3ccc(F)cc3)no2)C1 (stereo not shown) | 9.78%
CCCCCn1c(=O)c(C(=O)NCCc2ccccc2)c(O)c2ccccc21 | 24.9%
O=C(Nc1nc2ccc([N+](=O)[O-])cc2s1)c1c(F)cccc1F | -14.5%
C#CC[N+]1(CC#Cc2cccc(C)c2)CCCCC1.[Br-] | 5.18%
Cc1cccn2c(=O)c(C(=O)NC3CC(C)CC(C)(C)C3)c(O)nc12 (stereo not shown) | -29.3%
O=C(Cc1ccccc1)NNC(=S)NC(=O)c1cccs1 | 21.7%
O=C(Cc1ccc(Cl)cc1)Nc1ccc(NC(=O)c2cccs2)cc1 | -9.9%
CC1(C)CC(=O)C2=C(C1)Nc1ccccc1S2 | 13.4%
CCOc1ccc(NC(=O)N2CCC(NC(=O)C(Cc3cccc(F)c3)NC(C)=O)CC2)cc1 (stereo not shown) | 23.8%

Structure (SMILES) | hERG current change (%, negative = inhibition) at 10uM
COc1cc2c(cc1OC)CN(c1ccc(-c3ccccc3OC)nn1)CC2 | 0.648%
COc1ccc(N2CCN(C(CNC(=O)C(=O)NCC3CCCO3)c3ccco3)CC2)cc1 (stereo not shown) | -2.53%
CCn1cc(C(=O)NCCCN2CCCC(C)C2)c(=O)c2cc(S(=O)(=O)N3CCc4ccccc4C3)ccc21 (stereo not shown) | -75.7%
O=C(CN1CCC(n2nnc3cc(F)ccc32)CC1)NCCc1nc2ccccc2[nH]1 | -31.6%
Cc1ccc(C(=O)c2c3ccc(C(F)(F)F)cc3[n+]([O-])n2CCC(N)=O)cc1 | -66.2%
O=C(COc1ccccc1)NCCc1nc2ccccc2[nH]1 | -6.21%
CC1CCN(C(=O)c2[nH]cnc2C(=O)N[C@@H](CCCCNC(=O)OC(C)(C)C)C(=O)OC(C)(C)C)CC1 | -10.4%
CCCN(CCC)CCNC(=O)CCC(=O)Nc1ccc2nc(N3CCN(C)CC3)cc(C)c2c1 | 17.7%
COc1ccc2[n-]c(S(=O)Cc3ncc(C)c(OC)c3C)nc2c1.COc1ccc2[n-]c(S(=O)Cc3ncc(C)c(OC)c3C)nc2c1.[Mg+2] (stereo not shown) [49681830] | -0.361%
CCC(C)(C)NC(=O)C(c1cccnc1)N(C(=O)c1csnn1)c1ccc(C)cc1 (stereo not shown) | 10.6%
COc1ccc(CSC2=NCCN2)cc1Cl.Cl | -18.2%
CC(C)c1ccc(NC(=O)c2cc(Br)ccc2Br)cc1 | 10.6%
O=c1[nH]c(Cc2cccs2)nc2scc(-c3ccc(Cl)cc3)c12 | -8.42%
Cc1ccc(CN2CCC(NC(=O)c3ccccc3)CC2)cc1 | -75%
Cc1ccc(C(=O)OCC(=O)N2C(C)CCCC2C)s1 (stereo not shown) | -2.22%
COc1ccc(-c2cc3ccccc3oc2=O)cc1NC(=O)c1cccnc1 | -38.4%
CCN(CC(=O)N1CCCCC1)S(=O)(=O)c1ccccc1 | -7.12%
Cc1cc(C)cc(NC(=O)N(C)Cc2ccccc2)c1 | 12.3%
CCOC(=O)N1CCN(C(=O)CN(C2CCCCC2)S(C)(=O)=O)CC1 | 12.2%
Cc1ccc(C(=O)CCC(=O)N2CCN(C(=O)c3ccco3)CC2)cc1 | -56.2%
CCOc1ccc(NC(=O)C(=O)N/N=C\c2ccc(CNS(=O)(=O)c3ccccc3)o2)cc1 | 13.6%
N/C(=N\OC(=O)Cc1cccs1)c1cccc([N+](=O)[O-])c1 | -32.7%

Structure (SMILES) | hERG current change (%, negative = inhibition) at 10uM
O=C(NNC1=C(C(=O)C(F)(F)F)CCC1)c1cccnc1 | 4.19%
CCOc1ccc(CC(=O)Nc2ccc(-c3ccc4nnc(C)n4n3)cc2)cc1 | -40.4%
CCOC(=O)C1CCN(S(=O)(=O)c2ccc(-c3nc4ccccc4s3)s2)CC1 | 6.37%
Cc1ccc(NC(=O)c2ccc(Cl)nc2)cc1 | 18.1%
O=C(Cc1nc2ccccc2s1)c1ccc(O)cc1O | -2.86%
CCOc1ccc(/C=C\C(C)=N\O)cc1 | 0.628%
O=C(NNc1cc(N2CCOCC2)nc(N2CCOCC2)n1)C12CC3CC(CC(C3)C1)C2 | -2.08%
CCS(=O)(=O)N1CCN(c2ccc([N+](=O)[O-])c(NCc3cccnc3)c2)CC1 | -49.1%
Cc1nc2[nH]c(=S)n(C)c(=O)c2nc1C | 16.8%
CCc1nnc(NC(=O)C2CCCN(S(=O)(=O)c3ccccc3)C2)s1 (stereo not shown) | 5.15%
CCc1cc2cc3c(cc2nc1SCC(=O)Nc1nnc(C)s1)OCCO3 | 10.4%
CCc1ccccc1NC(=O)NNC(=O)c1ccc2ccccc2c1O | 18.2%
O=C(CC(Sc1ccccc1)c1cccs1)c1ccco1 (stereo not shown) | 9.65%
COC(=O)c1cccnc1-n1c(=O)c2cccnc2n(Cc2cccc([N+](=O)[O-])c2)c1=O | -25.1%
COCCCNc1nc(N)c([N+](=O)[O-])c(NC2CCCCC2)n1 | 9.79%
CCn1c(COc2ccc3c(c2)OCO3)nnc1SCC(=O)c1ccccc1 | 9.87%
COc1ccc(S(=O)(=O)N2CCc3ccccc32)cc1C(=O)N(CC(C)C)C1CCS(=O)(=O)C1 (stereo not shown) | -48.1%
C=CCN(c1ccccc1)S(=O)(=O)c1ccc2c(c1)oc(=O)n2C | 15.1%
COC(=O)[C@@]1(Cc2ccc(OC)cc2)[C@H]2c3cc(C(=O)N(C)C)n(CCSCCO)c3C[C@H]2CN1C(=O)c1ccccc1 | -18.4%

Reference: article PMC4336329 (PLoS ONE, 2015)
